Laboratory results taken from the RNAGym collection of RNA variant scans (doi:10.7554/elife.90254).
The source gives no read counts; variants with many changes may rest on few reads.

B1: LINE1-full (parent)
chain: UACGUAGGUGGUUUUCCCCUGAUAGUGCUAAGGGGGCCUGGAAGUUUGGACUGGGCAGAGCUCAACACAGCGUGGCAAAGUGGCUGUGGCUAGACUGCCUCUCUGGAUUCCUCGUCACUCAGCAGGGCAUCUCUGAGAGAAAUGCC

Variants of: B1
Experiment: self-cleavage, relative activity (ratio to wild type); higher = more cleavage; in vitro, sequencing; the parent is a self-cleaving ribozyme

Variant	self-cleavage
U14C U20A U29C U81C U112A	0
U14C C38U A64G U100C U130C	0.44
U14C A79U A94G U119C	0.53
U14C G93U C99U G106U	0.04
U14C C37A A42G	1.09
U14C G36A A94C A117G	0.07
U14C A67G A121G U132C	1.15
U14C U20C U85C	0
U14C A64U U119C A124U	0.46
U14C C71A U85C A141G	0.04
U14C U23C U47C	1.12
U14C U39G A77U U115A U130C A141C	1.38
U14C A78U A94U A141G	0.53
U14C A79G U109C C110U	1.09
U14C C51U G88A A138G	0.06
U14C U39A U134C	1.54
U14C A69U U81A U108C	0.21
U14C A64U U119C C133U U143A	0.74
U14C A67U U112C U132C	0.25
U14C G60U U100C G127A	0.07
U14C A65G U143C	0.13

Variant	self-cleavage
U14C G40U U47C U115C A138U	0
U14C A69G U73C	0
U14C A59U A64G A92G U119A A136U	0
U14C C28U U104C	0.91
U14C G34U U112A	1.04
U14C A69G A142G	0.24
U14C A69G A124U	0.51
U14C A77U G88U C103U A124G A140G	0.15
U14C G21U A50C U87A U112G A117U A129G	0
U14C U26C A69G A107U U112A G125A	0
U14C G33A A43G U62C U108C	0.1
U14C A77U U104A	2.25
U14C A57U U130C U132A	0.18
U14C G48A A92G A107G U119C	0
U14C G32U G86C A94G G127A	0.04
U14C G40U C63U	0.31
U14C U26C U45G G83U U85A	0
U14C A78G U87A A136U	0.12
U14C A78G U96A A136U	0.08
U14C U20A A24G U81C U96C	0
U14C A129G U134A	1.05

Variant	self-cleavage
U14C U15C U96A	0.11
U14C A124U A129G	2.3
U14C G25A A65G A77G A136G	0
U14C A78U U109C U134C	1.92
U14C G53U C84U A117G	0.36
U14C U23A U39A A141G	1.6
U14C U26A C61A U91A U130C	0.02
U14C C56U C71U	0.1
U14C U26A A140U	0.68
U14C U26A A59G A78G C113U A124U	0.17
U14C A129G A140U	1.86
U14C U20A U115C	3
U14C G105C C120A A136G	1.33
U14C U15C A65G U119C U132C	0.66
U14C A77G A107G U132C	1.23
U14C A59G G122U	0
U14C A78G U100A U108C A142G	0.3
U14C U26A A42U A107U U108C	0.66
U14C C18U U130C	0.94
U14C A64G U109C	0.31
U14C G32A A78G A138U	2.4

Variant	self-cleavage
U14C G27U A65G	0.1
U14C U29A A79U	0
U14C A64G U96A	0.07
U14C U39C A121U	1.59
U14C G36C G89A A142G	0.05
U14C A69U U85G U104C	0.69
U14C U20C A42G A136G	0.84
U14C C38U A43G G49U A78G	0.48
U14C A92U C113U	0.33
U14C U26C U39C A79G	0
U14C U39G U47C U134G	0.66
U14C A64G U100C	0.25
U14C C19U U62C	0.1
U14C G35U U85A	0.21
U14C U26C U52A A142G	1.48
U14C A69G A121U	0.99
U14C A64G A65C U85C U115A	0
U14C A69U A78G	0
U14C U20A G54A A65C U100C G126A U134C	0.03
U14C A67U U104C A138G	0.28
